# PubChem BioAssay AID886 (National Center for Advancing Translational Sciences (NCATS), 2007)
# About 2,500 (3.4%) of roughly 73,000 compounds were called active. Inconclusive means that the source gave no clear call. Such entries were picked first, then a sample of the others. The call rests on the fitted dose curve; in most records, active means well fitted inhibition curve with a large enough effect; inconclusive means small, poorly fitted or top-dose-only effect; inactive means no such curve, though single readings can be large or run the other way. Potencies beside an inconclusive call are fits to weak or partial responses and may not hold up.
# Biological target: 3-hydroxyacyl-CoA dehydrogenase type-2 (Homo sapiens) (UniProt Q99714)
# Chain of UniProt Q99714 (Q99714 whole entry, looked up): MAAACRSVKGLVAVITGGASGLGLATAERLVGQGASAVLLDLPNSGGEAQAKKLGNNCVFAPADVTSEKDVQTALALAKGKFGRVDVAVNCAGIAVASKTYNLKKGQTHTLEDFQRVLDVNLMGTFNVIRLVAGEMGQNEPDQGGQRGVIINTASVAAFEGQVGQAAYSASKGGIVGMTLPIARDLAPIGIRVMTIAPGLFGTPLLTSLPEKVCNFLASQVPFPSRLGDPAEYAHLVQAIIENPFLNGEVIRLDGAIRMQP
# Chain of UniProt Q99714 (Q99714 whole entry, looked up): as above
# Assay: qHTS Assay for Inhibitors of HADH2 (Hydroxyacyl-Coenzyme A Dehydrogenase, Type II); further: nearly all actives have a fitted effect of over 60% in size
# Conditions: recombinant HADH2, NADH fluorescence, beta-hydroxybutyryl-CoA; activity change, negative = inhibition: at 57.1 µM (top of the series)
# Outline: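 His-tagged recombinant enzyme from E. coli, 20 nM, preincubated 15 min RT with compound; reaction started with 1 mM NAD+ and 90 uM beta-hydroxybutyryl-CoA in 100 mM Tris-HCl pH 9.0. NADH fluorescence (ex 360/em 450) read over 4 min; last-minus-first difference.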
# On the % scale 0 is the no-effect control and ±100 the full control effect; potency means the concentration at half of the fitted maximal effect; tags describe the fitted curve by direction and shape.
Compound,Potency,"activity change, negative = inhibition"
O=C1Nc2ccccc2SC(c2ccccc2)C1O (stereo unspecified),"inconclusive: 31.6 µM [inhibitor, single point]",–
COc1cc2c(OC)cccc2cc1C(=O)O,active: 25.1 µM,–
CCOc1cc2[nH]c(=S)n(CCCN3CCCC3=O)c(=O)c2cc1OCC,"inconclusive: 39.8 µM [inhibitor, single point]",–
Cc1sc(NC(=O)c2ccco2)c(C(c2cccnc2)N2CCN(c3ccc(F)cc3)CC2)c1C (stereo unspecified),"inconclusive: 25.1 µM [inhibitor, single point]",–
COc1cc(C2CC(=O)N3CN(Cc4ccco4)CSC3=C2C#N)ccc1OCc1ccccc1 (stereo unspecified),active: 2 µM,–
O=C(NCc1ccco1)C1Cc2ccccc2CN1S(=O)(=O)c1ccccc1F (stereo unspecified),"inconclusive: 20 µM [inhibitor, partial curve]",–
Cc1cc(C)c2[nH]c(=O)c(CN(C(=O)C3CCCO3)C3CCCC3)cc2c1 (stereo unspecified),–,inactive: -13.7%
CCOC(=O)N/N=C1/C[C@@H](O)[C@@H](O)[C@@H]2[C@@H]3C(=O)N(C4CCCCC4)C(=O)[C@H]3CC[C@H]12,–,inactive: -2.35% [at 11.4 µM]
CCc1n[nH]c2c1/C(=N\O)CC(C)(C)C2,"inconclusive: 15.8 µM [inhibitor, partial curve]",–
O=C(CN1C(=O)CSC1=O)Nc1ccc(C(=O)O)cc1,"inconclusive: 25.1 µM [inhibitor, single point]",–
Cc1cc(N2CCOCC2)nc2ccc(NC(=O)C3CCC(C)CC3)cc12 (stereo unspecified),"inconclusive: 39.8 µM [inhibitor, single point]",–
COCCCNC(=O)c1ccc2nc3ccccc3c(=O)n2c1,"inconclusive: 39.8 µM [inhibitor, single point]",–
COc1ccc2cc3cc(C(=O)N4CCN(Cc5ccc6c(c5)OCO6)CC4)oc3nc2c1,active: 25.1 µM,–
Cc1ccccc1N1C(=O)c2cc(S(N)(=O)=O)c(Cl)cc2NC1C (stereo unspecified),"inconclusive: 25.1 µM [inhibitor, single point]",–
O=C(CN1CCC(Cc2ccccc2)CC1)NC(=O)NCc1ccco1,"inconclusive: 39.8 µM [inhibitor, single point]",–
O=C1CSC(=S)N1/N=C\c1ccc(Cl)c([N+](=O)[O-])c1,"inconclusive: 1.58 µM [inhibitor, partial curve]",–
Cc1oc(-c2cccs2)nc1CS(=O)CC(=O)NC1CCCCCC1 (stereo unspecified),"inconclusive: 7.94 µM [inhibitor, full curve]",–
CCCn1c(=O)c2[nH]c(-c3ccc(S(=O)(=O)O)cc3)nc2n(CCC)c1=O,active: 3.16 µM,–
Cc1nc2cnc(N(C)C)nc2n(CCc2ccccc2)c1=O,–,inactive: -0.711%
O=S(=O)(c1ccccc1)c1nc(-c2cccs2)oc1NCCCn1ccnc1,"inconclusive: 5.01 µM [inhibitor, single point]",–
COc1ccccc1N=c1oc2c(OC)cccc2cc1C(=O)NCc1ccco1,–,inactive: 6.19%
O=C(O)C1CSC(c2ccccc2)N1C(=O)c1ccco1 (stereo unspecified),"inconclusive: 31.6 µM [inhibitor, single point]",–
CC(=O)c1cccc(NC(=O)C2CCN(S(=O)(=O)c3c(C)n[nH]c3C)CC2)c1,"inconclusive: 20 µM [inhibitor, partial curve]",–

Compound,Potency,"activity change, negative = inhibition"
CCCCn1nnnc1SCC(=O)Nc1ccc2c(c1)OCO2,–,inactive: -2.52%
O=C(N/N=C1/C[C@@H](O)[C@@H](O)[C@@H]2[C@H]3C(=O)N(c4ccc(F)cc4F)C(=O)[C@@H]3CC[C@@H]12)OCc1ccccc1,–,inactive: -9.22% [at 11.4 µM]
CC1(C)Cc2nc3sc4c(=O)n(CC(=O)NCc5ccco5)cnc4c3cc2CO1,–,inactive: 10.7%
CC(C)Cn1c(N)c(C(=O)COC(=O)c2ccc3ccccc3n2)c(=O)n(C)c1=O,–,inactive: 15.9%
CCc1c(C)nc(N2CCOCC2)[nH]c1=O,"inconclusive: 0.0316 µM [inhibitor, full curve, poor fit]",–
CCc1ccc2nc(NC3=NCN(CCN4CCOCC4)CN3)nc(C)c2c1,active: 10 µM,–
CC(=O)NCCNc1ncnc2ccc(-c3ccoc3)cc12,"inconclusive: 25.1 µM [inhibitor, single point]",–
COC(=O)c1sc(N)c(C(=O)OC)c1CSc1nc2sc3c(c2c(=O)n1C)CCC3,"inconclusive: 39.8 µM [inhibitor, single point]",–
O=C1CC(/C=C/c2ccco2)=Nc2ccccc2N1,"inconclusive: 25.1 µM [inhibitor, partial curve]",–
CCOc1cccc(NC(=O)CC#N)c1,"inconclusive: 0.158 µM [inhibitor, full curve]",–
COC(=O)CNC(=O)COC(=O)c1cc(Cl)cc(Cl)c1N,active: 31.6 µM,–
CCCC(=O)Nc1ccccc1NC(C)=O,–,inactive: 7.74%
O=C(CN1C(=O)C2CC=C(Cl)CC2C1=O)NCc1ccccc1 (stereo unspecified),"inconclusive: 5.01 µM [inhibitor, single point]",–
CC(=O)Nc1ccc(C(=O)Cn2nnc3ccccc3c2=O)cc1,"inconclusive: 0.794 µM [inhibitor, single point]",–
COc1cccc(OCc2nnc(SCC(=O)OCc3ccccc3)o2)c1,"inconclusive: 39.8 µM [inhibitor, single point]",–
O=c1c2cn[nH]c2[nH]c(=S)n1-c1ccccc1F,"inconclusive: 31.6 µM [inhibitor, single point]",–
CCOC(=O)c1c(CN2CCCCC2)oc2ccc(O)cc12,"inconclusive: 2 µM [inhibitor, partial curve]",–
CCNC(=O)NC(=O)COC(=O)c1ccccc1SCC(=O)NC(=O)NCC,active: 31.6 µM,–
Cc1c(-c2nc(N)nc(Nc3ccccc3F)n2)oc2ccccc12,"inconclusive: 39.8 µM [inhibitor, single point]",–
O=C(NCCSCc1ccco1)c1ccc(CN2CCOCC2)cc1,–,inactive: -3.4%
CC1CCCCN1CCNC(=O)c1cc2c(-c3ccccc3F)nn(C)c2s1 (stereo unspecified),active: 25.1 µM,–
O=C(CSc1nnc(-c2ccc(NS(=O)(=O)c3ccccc3)cc2)o1)NCC1CCCO1 (stereo unspecified),–,inactive: -10.8%
O=C(Cn1ccc(=O)[nH]c1=O)Nc1ccc(C(=O)O)c(O)c1,–,inactive: -10.7% [at 11.4 µM]
